Laboratory results taken from the supplement of paper PMC10338343.
± gives the standard deviation. The list shows a part of the results, in another mix than the full data.

Each sequence was assayed on MIWI (PIWIL1) piRISC loaded with piRNA #1 (30 nt) (assay: pre-steady-state target cleavage rate (min^-1); MIWI and MILI are mouse PIWI proteins and EfPiwi is from a freshwater sponge; tags in brackets are library labels; higher = faster piRNA-guided slicing of the target). Conditions: guide: piRNA #1 5'p-UGAGGUAGUAGGUUGUAUAGUAUCCAGAGG; auxiliary factor: 500 nM mouse GTSF1.
How it was run: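 At 33 °C in HEPES–potassium acetate buffer, a transcribed, DNA-blocked target RNA library […] was exposed for 0–8 or 0–960 min to 1 nM active affinity-purified piRISC carrying a single synthetic guide, with or without 500 nM GTSF1 partner protein. Uncleaved targets were sequenced and normalised to depth and to weakly complementary targets. With three trials pooled and k3 capped at 0.0001 min^-1, a burst-and-steady-state fit produced the pre-steady-state cleavage rate.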
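Also: 1 nM active piRISC with 0.1 nM target library at 33 °C single turnover.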

| Sequence | pre-steady-state target cleavage rate |
| --- | --- |
| GGAGACGUUACUAUACAACCUAGUACCUCA | 0.451 ± 0.031 |
| GGUCUCGUUACUAUACAACCUACUACCUCA | 1.7 ± 0.099 |
| GGAGUGGAUACUAUACAUCCUACUAGCUCA | 0.132 ± 0.019 |
| GGUCUGGAUACUAUACAACCUGCUACCUCA | 0.858 ± 0.052 |
| GGUCUGGAUACUAUACAACCUACUACCUGA | 0.699 ± 0.12 |
| GCUCUGGAUACUAAACAAGCUACUACCUCA | 1.23 ± 0.069 |
| CCUCUGGAUACUAUACAACCUUCUAGCUCA | 0.33 ± 0.042 |
| GGAGAGGAUACUAUACAUCCUACUACCUCA | 1.15 ± 0.058 |
| GCUCUGGAUACUAAACAACCUACUACGUCA | 1.2 ± 0.073 |
| GGAGACCUAUGAUAUGACCCUACUACCUCA | < 0.0001 |
| GGAGACCAUACUAUACAACCUACAUACCUCA | 1.31 ± 0.11 |
| GCUCUGGAUACUUUACAACGUACUACCUCA | 1.1 ± 0.072 |
| GGUCUGGAUACUAUACAACCUACUUCGUCA | 0.00248 ± 0.0021 |
| GCUCUGGAUACUAUACAACCUACAAGCUCA | 0.629 ± 0.094 |
| GGAGACCUAUGAUAUGUACCUAUCUACCUCA | < 0.0001 |
| GGAGUGGCAUACUAUACAACCUACUACCUCA | 1.8 ± 0.11 |
| GGUCUGGAUACUAUACAUCCUAGUACCUCA | 0.24 ± 0.04 |
| GGAGAGGAUACUAUACAACCUACUACUCUCA | 0.704 ± 0.045 |
| GGAGACCAUACUAUACGACCUACUACCUCA | 1.06 ± 0.072 |
| GGAGACCAUACUAUACAACCUACUACGUCA | 0.981 ± 0.072 |

| Sequence | pre-steady-state target cleavage rate |
| --- | --- |
| GGAGACCUAUGUAACAACCUACUACCUCA | 0.00914 ± 0.0033 |
| GGAGACCUAACUAUACAAGCUACUAGCUCA | 0.259 ± 0.034 |
| GGACUGGAUACUAUUCAACCUACAACCUCA | 0.194 ± 0.029 |
| GCUCAGGAUACUAUUCAACCUACUACCUCA | 2.09 ± 0.13 |
| GGAGACGAUACGAUACAACCUACUACCUCA | 1.44 ± 0.084 |
| GCUCAGGAUACUAUAGAACCUACUACCUCA | 0.384 ± 0.041 |
| GGUCUGGAUACUAUACAACCUAUUACCUCA | 1.09 ± 0.079 |
| GGACAGGAUACUAUACAACCUACUAGCUCA | 0.086 ± 0.014 |
| GGAGACCUUACUAUACAACCUUGUACCUCA | 0.0118 ± 0.0031 |
| GGAGAGGAUACUAUACAACCUACUACUCA | 0.537 ± 0.047 |
| CCUCUGGAUACUAUACAACCUACACCUCA | 0.0138 ± 0.004 |
| GCUCUGGAUACUAUACAACCUACUAGCUCA | 1.26 ± 0.11 |
| GGAGACCUUUCUAUACAACCUACUACCUCA | 0.994 ± 0.083 |
| GGAGACCUAUGUAUACAUGCUACUACCUCA | 0.00421 ± 0.0021 |
| GCUGUGGAUACUAUACAACCAACUACCUCA | 0.15 ± 0.015 |
| CCUCUGGAUACUAUACUACCUUCUACCUCA | 0.281 ± 0.024 |
| GGAGACCUAUCUAUACAACCUACUACUUCA | 1.32 ± 0.088 |
| CGUCUGCAUACUAUACAACCUACUACCUCA | 1.76 ± 0.099 |
| CCUCUGGAUACUAUACAAGCUACUACCACA | 1.58 ± 0.1 |
| GGACUGGAUACUAUUACAACCUACUACCUCA | 1.36 ± 0.11 |
